Experimental findings from the BET-seq Pho4 binding data (Le et al. 2018) are described below.

The list shows a part of the results. The energies were worked out here from pooled read counts, against the library average; single values are noisy.

This assay concerns the target T1, Pho4 (S. cerevisiae) (UniProt P07270).
T1 sequence: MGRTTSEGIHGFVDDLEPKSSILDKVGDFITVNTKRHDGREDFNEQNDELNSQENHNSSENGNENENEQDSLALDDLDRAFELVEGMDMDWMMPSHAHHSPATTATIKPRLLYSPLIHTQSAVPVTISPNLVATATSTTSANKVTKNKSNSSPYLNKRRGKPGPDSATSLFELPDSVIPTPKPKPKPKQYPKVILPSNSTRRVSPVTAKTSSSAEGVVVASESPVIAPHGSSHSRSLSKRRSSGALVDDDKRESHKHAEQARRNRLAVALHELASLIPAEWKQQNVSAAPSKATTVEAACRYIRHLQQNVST
Briefly: relative binding free energy (BET-seq); higher = weaker binding. The note with it: reference: library average.
Regarding TAAATCACGTGGGGAG, the “relative binding free energy” value is -0.13 kcal/mol.
As to CTGAGCACGTGGCTGG, the “relative binding free energy” value was -0.18 kcal/mol.
The value for TAGTACACGTGAGTGA was 0.25 kcal/mol; that for ATAGACACGTGATAGT was 0.06 kcal/mol.
With TGTATCACGTGTTGTT the figure was 0.22 kcal/mol; with AATGGCACGTGGTGGA, -0.1 kcal/mol; with GGTGGCACGTGTTCTT, -0.08 kcal/mol.
The value for TTGGTCACGTGTTGAT was 0.14 kcal/mol; that for CGGTTCACGTGGATGT was 0.29 kcal/mol; that for TGGAGCACGTGGGATA was -0.01 kcal/mol.
Take AGGTTCACGTGCGCTG: the “relative binding free energy” value came to 0.26 kcal/mol.
The value for TACATCACGTGTGGAT was 0.24 kcal/mol; that for TGGGGCACGTGGCCTG was -0.24 kcal/mol; that for ATTGGCACGTGATCGT was -0.08 kcal/mol.
TGGTTCACGTGTCGTA: the “relative binding free energy” value is 0.31 kcal/mol.
The value for ATATTCACGTGCATTG was 0.22 kcal/mol.
With GTATTCACGTGATTTA the figure was 0.4 kcal/mol.
Consider TGAGGCACGTGCTGGG, for which the “relative binding free energy” value is -0.18 kcal/mol.
Consider CGTTTCACGTGGGATG, for which the “relative binding free energy” value is 0.26 kcal/mol.
With TTAAGCACGTGGTGGT the figure was -0.25 kcal/mol.
In the case of TTTATCACGTGTCATT, the “relative binding free energy” value came to 0.22 kcal/mol.
With CTTAGCACGTGAGTTT the figure was 0.15 kcal/mol; with GTATTCACGTGCATGG, 0.22 kcal/mol.
The value for CTGGGCACGTGAGGAA was 0.06 kcal/mol; that for TGTGTCACGTGTGGCG was 0.03 kcal/mol; that for TTTGCCACGTGTGTGG was -0.04 kcal/mol.
With GCGTGCACGTGTAGTT the figure was 0.14 kcal/mol; with TATAGCACGTGGAGGA, -0.06 kcal/mol; with ACGGGCACGTGATGTA, -0.09 kcal/mol.
As for TCTGTCACGTGTATTG, the “relative binding free energy” value came out at 0 kcal/mol.
Turning to ATTATCACGTGAAGGA, the “relative binding free energy” value amounted to 0.2 kcal/mol.
The value for GTTCTCACGTGGGGAA was 0.03 kcal/mol; that for TGGGGCACGTGTGGTA was -0.08 kcal/mol.
The value for TTGTTCACGTGCCAGT was 0.22 kcal/mol; that for TTGGGCACGTGACGCG was -0.12 kcal/mol.
As to ATGAGCACGTGGTGGT, the “relative binding free energy” value is -0.18 kcal/mol.
With TCGTTCACGTGTATTT the figure was 0.42 kcal/mol; with ATTTTCACGTGGACTA, 0.39 kcal/mol; with GGCCACACGTGGGTGG, -0.13 kcal/mol.
For the sequence ATCTTCACGTGGGGGT, the “relative binding free energy” value is 0.05 kcal/mol.
With GTAGGCACGTGGGACT the figure was -0.21 kcal/mol; with GGTTTCACGTGATAAT, 0.52 kcal/mol.
In the case of TATATCACGTGGGGTG, the “relative binding free energy” value was 0.02 kcal/mol.
With TTTACCACGTGTTATG the figure was 0.02 kcal/mol; with AATTACACGTGTTATT, 0.15 kcal/mol.
As for CGGTTCACGTGAGGTC, the “relative binding free energy” value is 0.4 kcal/mol.
Consider TGTTCCACGTGGGAGC, for which the “relative binding free energy” value was determined as 0.12 kcal/mol.
With TGTGTCACGTGAGCTT the figure was -0.03 kcal/mol.
The value for GTTCGCACGTGTTGCG was 0.11 kcal/mol.
In the case of TTGATCACGTGAATAT, the “relative binding free energy” value came to 0.28 kcal/mol.
The value for GCCTGCACGTGTTGGG was 0 kcal/mol.
Turning to TCAAGCACGTGGTTTG, the “relative binding free energy” value is -0.12 kcal/mol.
The value for AGTTGCACGTGTGTGG was 0.04 kcal/mol.
CGGGGCACGTGGAGCT: the “relative binding free energy” value was -0.26 kcal/mol.
Take GTGAACACGTGAGGTC: the “relative binding free energy” value was 0.23 kcal/mol.
With TGTCTCACGTGTCATT the figure was 0.33 kcal/mol.
The value for TGCGTCACGTGTTTTC was 0.21 kcal/mol.
Regarding TTACTCACGTGAAGGT, the “relative binding free energy” value came to 0.36 kcal/mol.
In the case of CATTTCACGTGGGGGA, the “relative binding free energy” value was -0.1 kcal/mol.
With GGTACCACGTGTTTGG the figure was 0.05 kcal/mol.
As for TTTATCACGTGAGTGA, the “relative binding free energy” value was 0.16 kcal/mol.
On to AATGTCACGTGGTGCT, for which the “relative binding free energy” value was determined as 0.05 kcal/mol.
ATGTGCACGTGTCCGT: the “relative binding free energy” value was -0.06 kcal/mol.
For GGGGGCACGTGTGATG, the “relative binding free energy” value was -0.03 kcal/mol.
On to GAATTCACGTGGGCGG, for which the “relative binding free energy” value worked out at 0.12 kcal/mol.
Take GGGTTCACGTGGAAAT: the “relative binding free energy” value was 0.31 kcal/mol.
TATGTCACGTGATAGC: the “relative binding free energy” value worked out at 0.2 kcal/mol.
For CGTGTCACGTGAGTTT, the “relative binding free energy” value turned out to be 0.36 kcal/mol.
With ATGTGCACGTGAAGCT the figure was 0.28 kcal/mol; with ATATACACGTGAGGGA, 0.15 kcal/mol.
The value for CAGGTCACGTGGTCGG was 0.1 kcal/mol; that for GATGTCACGTGGTCTG was 0.18 kcal/mol; that for TGTTTCACGTGGGTCA was 0.2 kcal/mol.
With TTTTACACGTGAAACT the figure was 0.39 kcal/mol; with TGATGCACGTGTTCTA, 0.06 kcal/mol; with GGGGTCACGTGGCGCA, 0.01 kcal/mol.
Turning to AGGTACACGTGAGGAG, the “relative binding free energy” value was 0.21 kcal/mol.
With GTCGACACGTGGTGTG, the “relative binding free energy” value is -0.02 kcal/mol.
With CCGTTCACGTGGGTGT the figure was 0.07 kcal/mol; with TAGCGCACGTGGTAGG, -0.06 kcal/mol.
The value for ATGTGCACGTGCAGGA was -0.04 kcal/mol.
The value for AGCTTCACGTGTGGGC was 0.12 kcal/mol.
For GATAGCACGTGTGCGT, the “relative binding free energy” value stood at 0.02 kcal/mol.
For GGGGGCACGTGTAGAT, the “relative binding free energy” value came out at 0.14 kcal/mol.
With TGGATCACGTGTTGGT the figure was 0.22 kcal/mol.
With TTTCTCACGTGCGTAT the figure was 0.33 kcal/mol.
The value for TAGGGCACGTGGCACG was -0.05 kcal/mol.
With GGGTTCACGTGTCTAG, the “relative binding free energy” value was 0.41 kcal/mol.
With GTCGTCACGTGAGTAT, the “relative binding free energy” value was 0.46 kcal/mol.
On to TGGTTCACGTGACGCT, for which the “relative binding free energy” value came to 0.25 kcal/mol.
The value for GTAAGCACGTGATTTT was 0.13 kcal/mol; that for TTATGCACGTGGGGGT was -0.22 kcal/mol; that for ATAGTCACGTGCGTTG was 0.02 kcal/mol.
The value for TTGAGCACGTGTGAGC was 0.14 kcal/mol.
The value for TTAGTCACGTGTTAGT was 0.14 kcal/mol; that for GTGCGCACGTGTTGTA was -0.17 kcal/mol.
Take GGGTGCACGTGGAGTC: the “relative binding free energy” value is -0.1 kcal/mol.
The value for CTCGGCACGTGGTTGG was -0.04 kcal/mol.
With CTGGGCACGTGAATGG the figure was 0.1 kcal/mol; with TGGCACACGTGTAGGG, 0.04 kcal/mol.
The value for AAATTCACGTGTAGGA was 0.24 kcal/mol; that for TAAGGCACGTGAGGTA was 0.1 kcal/mol; that for TTGATCACGTGATTAT was 0.27 kcal/mol.
Regarding GTGATCACGTGCATGG, the “relative binding free energy” value is 0.16 kcal/mol.
Consider ATGCGCACGTGAGTTG, for which the “relative binding free energy” value turned out to be 0.18 kcal/mol.
With ATGATCACGTGTGCGG the figure was 0.05 kcal/mol.
The value for TGAGGCACGTGCATGT was -0.1 kcal/mol; that for GTTTGCACGTGGCGGC was -0.06 kcal/mol; that for GCTGTCACGTGGGAAG was 0.1 kcal/mol.
The value for TCGTGCACGTGGTAAA was 0.07 kcal/mol; that for TGATACACGTGAGTGA was 0.11 kcal/mol; that for GCAATCACGTGTTTTT was 0.18 kcal/mol.
Turning to GATATCACGTGAGGGT, the “relative binding free energy” value is 0.32 kcal/mol.
As to CAGGTCACGTGATATT, the “relative binding free energy” value was found to be 0.18 kcal/mol.
On to ACGGGCACGTGTCGGG, for which the “relative binding free energy” value was -0.08 kcal/mol.
For GATTTCACGTGGCGTA, the “relative binding free energy” value amounted to 0.23 kcal/mol.
For AGGCACACGTGGTGGC, the “relative binding free energy” value is -0.1 kcal/mol.
The value for AGTTCCACGTGAGGTT was 0.22 kcal/mol; that for GAGGGCACGTGCAGTG was -0.06 kcal/mol; that for GTGCTCACGTGGCGTA was 0.15 kcal/mol.
For AATGGCACGTGGCGGT, the “relative binding free energy” value is -0.22 kcal/mol.
ATAGTCACGTGACGGT: the “relative binding free energy” value was found to be 0.09 kcal/mol.
With TTATACACGTGGGATG the figure was 0 kcal/mol; with GGTCACACGTGGGTTT, 0 kcal/mol; with GTGATCACGTGCTTGT, 0.07 kcal/mol.
For the sequence TATGACACGTGGGGGT, the “relative binding free energy” value was -0.18 kcal/mol.
The value for TTTTGCACGTGAGGCG was 0.33 kcal/mol.
As for GTTTGCACGTGTAGCC, the “relative binding free energy” value worked out at 0.24 kcal/mol.
With AGAGACACGTGATAGG the figure was 0.1 kcal/mol; with AAGCTCACGTGTGGGG, 0.11 kcal/mol; with TATTCCACGTGTAGGT, -0.02 kcal/mol.
Turning to CAGTGCACGTGGGGTA, the “relative binding free energy” value was -0.3 kcal/mol.
With TGTAGCACGTGGGTGA, the “relative binding free energy” value is -0.16 kcal/mol.
With GAATTCACGTGTAGGG the figure was 0.33 kcal/mol.
For AGTGGCACGTGGTAGA, the “relative binding free energy” value was -0.09 kcal/mol.
Take GCGCGCACGTGGGGGG: the “relative binding free energy” value was -0.24 kcal/mol.
The value for TGTCACACGTGGCGTT was -0.07 kcal/mol.
For CTGTCCACGTGTGTTT, the “relative binding free energy” value amounted to 0 kcal/mol.
With TTCGGCACGTGCGGAT the figure was -0.11 kcal/mol; with TGAGGCACGTGGTCAT, -0.16 kcal/mol.
The value for ATAGTCACGTGATTGG was 0.34 kcal/mol.
GTTTGCACGTGAGACG: the “relative binding free energy” value amounted to 0.27 kcal/mol.
The value for TATGACACGTGAAGTA was 0.12 kcal/mol; that for TTATGCACGTGTCTAT was -0.2 kcal/mol; that for AAGTTCACGTGCGCGG was 0.2 kcal/mol.
Turning to TTCGGCACGTGAAGGA, the “relative binding free energy” value came to 0.31 kcal/mol.
